Out of some 50,000 compounds screened, about 800 (1.6%) showed an effect of 50% or more. This is one part of the list.

The target in the assay is Bcl-2-like protein 10 (Homo sapiens) (UniProt Q9HD36). Description: Phenotype converters, Bcl-B/TR3 peptide binding displacement, primary biochemical FP (AID 1240).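 Also: 0% = Bcl-B with tracer peptide and DMSO and 100% = tracer peptide lacking Bcl-B.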 As to conditions: GST-Bcl-B / FITC-TR3 peptide fluorescence polarization; stronger effect = higher value; compound at 3.75 mg/L. A general note: Fluorescence polarisation rises when a labelled molecule tumbles more slowly, as on binding a larger partner.
UniProt Q9HD36, sequence (Q9HD36 whole entry, looked up): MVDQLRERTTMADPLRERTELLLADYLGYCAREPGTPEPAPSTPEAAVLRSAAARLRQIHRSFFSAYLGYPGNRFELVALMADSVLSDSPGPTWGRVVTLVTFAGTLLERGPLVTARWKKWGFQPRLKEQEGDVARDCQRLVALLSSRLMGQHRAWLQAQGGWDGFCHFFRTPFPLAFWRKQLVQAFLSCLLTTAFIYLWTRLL
On to `O=C1NC(=O)N(c2ccccc2)C(=O)/C1=C\c1ccc(-c2ccc([N+](=O)[O-])cc2Br)o1`, for which the displacement was -14.8%.

As to `COc1ccc(CCNC(=O)C(=O)Nc2ccc(OC)cc2)cc1`, the displacement was -111%.

In the case of `CC(C)(C)c1ccc(OCC(=O)Nc2cccc([N+](=O)[O-])c2)cc1`, the displacement was -0.9%.

In the case of `Cc1cccc(OCC(=O)N2CCN(c3ccc([N+](=O)[O-])cc3)CC2)c1`, the displacement came out at 2.5%.

For `COc1ccc(C2Nc3ccccc3C(=O)N2Cc2ccccc2)cc1CSc1ccccn1` (configuration not stated), the displacement came out at 11.6%.

As to `Cc1ccc(N=Cc2c(C)nn(-c3ccccc3)c2Sc2ccc(C)cc2)cc1`, the displacement was 8.4%.

As for `CCOc1ccc(N(CC(=O)Nc2ccc(OC)cc2OC)S(=O)(=O)c2ccccc2)cc1`, the displacement amounted to 1.7%.

As to `O=C(Nc1ccccc1C(=O)NCCCn1ccnc1)c1ccccc1`, the displacement worked out at 83.5%.

With `Cc1ccc(C(=O)/C=C/Nc2ccc(Cl)c(Cl)c2)cc1`, the displacement was 126%.

With `COc1cc(C=Nc2ccc(Nc3ccccc3)cc2)cc([N+](=O)[O-])c1O`, the displacement came to 14.2%.

On to `CCc1ccc(NC(=O)c2nn3c(c2Br)NC(c2ccccc2)CC3C(F)(F)F)cc1` (configuration not stated), for which the displacement came to 7.7%.

`CC(=O)C1C(=O)c2cc([N+](=O)[O-])ccc2C1=Nc1ccccc1C` (configuration not stated): the displacement came to 12.1%.

Take `CCOC(=O)c1c(NC(=O)c2cccc(Cl)c2)sc(C(=O)Nc2cccc(C(F)(F)F)c2)c1C`: the displacement is -3.3%.

On to `C=CCOc1ccc(C(c2c(C)[nH]n(-c3ccccc3)c2=O)c2c(C)[nH]n(-c3ccccc3)c2=O)cc1`, for which the displacement was -1.5%.

For the compound `O=c1c2c(nc3cc(-c4ccc(F)cc4)[nH]n13)CCCC2`, the displacement was -5.8%.

As to `Cc1ccc(C(=O)NCCCN2CCOCC2)c2ccccc12`, the displacement was -1.8%.

`COc1cc(C(=O)Nc2cccc(S(N)(=O)=O)c2)cc(OC)c1OC`: the displacement amounted to 8.8%.

`Cn1c(O)c(N=NC(=O)c2ccccc2NC(=O)c2ccccc2)c2ccccc21`: the displacement is -4%.

Regarding `Cc1cc(C)c(NC(=O)C(C)SCC(=O)Nc2ccccc2)c(C)c1` (configuration not stated), the displacement is -10.7%.

With `CCOc1ccc(/C=C2/NC(=S)NC2=O)cc1Cl`, the displacement was -2.6%.

As for `Cc1nc2cc(S(=O)(=O)N(C)C)ccc2n1-c1ccccc1`, the displacement is 13.9%.

As for `CC(C)NC(=O)COc1ccc(/C=N/NS(=O)(=O)c2ccccc2)cc1`, the displacement is -9.8%.

Consider `CCn1c2ccccc2c2nnc(N/N=C/c3ccccc3O)nc21`, for which the displacement was -9.1%.

As to `CC(C)(C)NC(=O)CN1C(=O)/C(=C/c2ccccc2)SC1=S`, the displacement is 10.7%.

Take `CCOC(=O)c1cn(CC)c2cc(Cl)c(-c3ccco3)c(Cl)c2c1=O`: the displacement amounted to 9.8%.

As for `O=C(O)C1CCCCC1C(=O)Nc1ccc(-c2ccccc2)cc1` (configuration not stated), the displacement was -10.4%.

Consider `O=C1c2ccccc2C(=O)N1Cc1nc2ccccc2c(=O)n1CCCn1ccnc1`, for which the displacement stood at 2.4%.

With `COc1ccc(/C=C(/NC(=O)c2cc(OC)c(OC)c(OC)c2)C(=O)NC(C(=O)O)C(C)C)c(OC)c1` (configuration not stated), the displacement worked out at 2.5%.

Turning to `COc1cc(/C=c2\sc3nc4ccccc4n3c2=O)cc(Br)c1OCc1ccccc1F`, the displacement was determined as 13.9%.

Turning to `COc1ccc(CC(=O)O/N=C(\N)c2ccncc2)cc1OC`, the displacement stood at 9.1%.

For `C(=N\Nc1ncnc2sc3c(c12)CCC3)/c1ccco1`, the displacement is -25.8%.

In the case of `O=C(/C=C/c1ccccc1Cl)NC1CC2CCC1C2` (configuration not stated), the displacement was determined as 1.4%.

Consider `O=[N+]([O-])c1ccccc1S(=O)(=O)Oc1ccccc1/C=N/n1cnnc1`, for which the displacement was -11.3%.

`O=C(Nc1cccc(Cl)c1Cl)C(O)(c1ccccc1)c1ccccc1`: the displacement stood at 2.6%.

As for `Cc1ccc(N2CCSC2c2ccco2)cc1` (configuration not stated), the displacement came out at 1.4%.

Take `COc1ccc(C(=O)NNC(=O)c2ccccc2[N+](=O)[O-])cc1`: the displacement was -4.4%.

On to `COc1ccc(C(C)=O)cc1N1C(=O)C2C3C=CC(C3=C(c3ccccc3)c3ccccc3)C2C1=O` (configuration not stated), for which the displacement is 2.3%.

With `Cc1nn2c3ccccc3n(C)c2c1C(=O)NN`, the displacement is -4.4%.

Turning to `Cc1[nH]c2c(Cl)cccc2c(=O)c1CN1CCN(C)CC1`, the displacement stood at 0.6%.

For the compound `CCc1cc(OCCOCCN2CCC(C)CC2)ccc1Cl`, the displacement was -4.1%.

As to `Cc1ccc(/C=N/n2c(C)nnc2C)cc1`, the displacement is -6%.

On to `Cc1ccc(C(=O)Nc2cccc([N+](=O)[O-])c2)o1`, for which the displacement was determined as 11.2%.

Regarding `CC12c3ccccc3C(C)(c3ccccc31)C1C(=O)N(c3ccc(Cl)c(C(=O)O)c3)C(=O)C12` (configuration not stated), the displacement was determined as 6.1%.

In the case of `COc1ccc(C2CC(c3ccccc3)=NN2c2ccc([N+](=O)[O-])cc2)cc1` (configuration not stated), the displacement was -6.4%.

With `NC(=O)c1c(NC(=O)c2cccc(Oc3ccccc3)c2)sc2c1CCCC2`, the displacement is -4.2%.

Turning to `CCn1c2c(c3cc(C)ccc31)CCCC2=O`, the displacement worked out at 9.5%.

In the case of `O=C(Nc1ccc(Cl)cc1)Oc1ccccc1[N+](=O)[O-]`, the displacement worked out at 0%.

Take `Cc1c(C(=O)NCCO)c(-c2ccccc2)nn1-c1ccccc1`: the displacement came to 14.9%.

On to `Cc1cc(C)c2nc3s/c(=C\c4cc5c(cc4[N+](=O)[O-])OCO5)c(=O)n3c2c1`, for which the displacement was -4.7%.

Consider `Cc1ccc(N(CC(=O)O)S(C)(=O)=O)cc1Cl`, for which the displacement was -3.5%.

`CCOC(=O)C1=C(O)/C(=C/c2cc(OC)c(OC)c(OC)c2)SC1=Nc1ccccc1`: the displacement is -14.2%.

Turning to `COc1ccc(C(CC(=O)c2ccc(Cl)cc2)Nc2ccc(Br)cc2)cc1` (configuration not stated), the displacement is -7.3%.

As for `C=CCOCC(O)CSCc1ccc(Cl)cc1` (configuration not stated), the displacement was -1.9%.

As for `COC(=O)c1ccc(NC(NC=O)C(Cl)(Cl)Cl)cc1` (configuration not stated), the displacement turned out to be 3%.

For the compound `COc1cc(/C=C/c2[nH]c(=O)[nH]c(=O)c2[N+](=O)[O-])cc(Br)c1OCc1ccccc1`, the displacement stood at 15.6%.

Take `O=C1/C(=C\c2ccccc2OS(=O)(=O)c2ccccc2[N+](=O)[O-])SC(=S)N1c1ccccc1`: the displacement is 2.3%.

Turning to `O=C(/C=C\c1ccccc1)Nc1cccc(NC(=O)c2ccco2)c1`, the displacement was 5.2%.

For the compound `O=S(=O)(Cc1ccccc1)c1nc2ccccc2n1Cc1ccc(Cl)cc1`, the displacement was 1.8%.

Consider `O=C(c1cc(F)c(F)cc1Cl)N1CCN(c2cc(N3CCCCC3)c(F)cc2[N+](=O)[O-])CC1`, for which the displacement is -9.6%.

As for `O=C(c1ccc(Cl)c(Cl)c1)N1CCN(C/C=C/c2ccccc2)CC1`, the displacement was -3.2%.

With `COc1ccc2oc(-c3ccccc3)c(C(=O)Nc3nccs3)c2c1`, the displacement came out at 5.4%.

Turning to `Cc1cc(C)nc(SCC(=O)Nc2ccc(Cl)c(Cl)c2)n1`, the displacement amounted to 4%.

As to `CN(C)CCCNC(=O)c1ccccc1Oc1ccccc1`, the displacement is -3.1%.

As for `CS(=O)(=O)N(CC(=O)Nc1cccc(Br)c1)c1ccc(Oc2ccccc2)cc1`, the displacement was found to be 1.9%.

As for `CN(C)c1ccc(/C=C2\SC(=S)NC2=O)cc1Br`, the displacement turned out to be 7%.

Turning to `Cc1cc(Cl)ccc1NS(=O)(=O)c1ccc(Cl)cc1`, the displacement is -7.4%.

In the case of `CCCC(=O)Nc1cccc(NC(=S)NC(=O)c2ccccc2Cl)c1`, the displacement is -6.3%.

As to `Oc1ccc(/C=N/Nc2cc(N3CCOCC3)nc(N3CCOCC3)n2)cc1`, the displacement is 25%.

Turning to `COc1ccc(C(=O)CSc2nc(C)cc(C)n2)cc1[N+](=O)[O-]`, the displacement turned out to be 12.6%.

On to `CCCCNC(=S)Nc1ccc(Cl)cc1Cl`, for which the displacement was -4.5%.

As to `C=CCN1C(=O)/C(=C/c2ccc(Br)cc2)S/C1=N\c1nnc(CC)s1`, the displacement was determined as 3.1%.

As to `Cc1cccc(C)c1NC(=O)CN(c1ccc(F)cc1)S(=O)(=O)c1ccccc1`, the displacement is -11.5%.

For `COc1ccc(/C=C/C(=O)NC(=S)Nc2ccc(S(=O)(=O)N=C(N)N)cc2)cc1`, the displacement turned out to be 9.6%.

On to `O=C(Nc1ccccc1I)c1cc(-c2ccccc2)nc2ccccc12`, for which the displacement was -3.4%.

Regarding `O=C(N/N=C\c1c(Cl)cccc1Cl)c1cnccn1`, the displacement was -7.9%.

With `CCOC(=O)/C(C#N)=C/Nc1ccccn1`, the displacement is -4.8%.

For `CC1CCN(c2cc(N3CCN(C(=O)c4cccc(F)c4F)CC3)c([N+](=O)[O-])cc2F)CC1`, the displacement is -11.1%.

On to `S=C(NCCN1CCOCC1)Nc1ccccc1`, for which the displacement is -8.1%.

For the compound `COc1ccc(OC)c(/C=C2/C(=O)ON=C2c2ccccc2)c1`, the displacement was 10.5%.

For the compound `Cc1ccc(-c2[nH]n3c(=O)c(C)c(C)nc3c2C)cc1`, the displacement was -10.4%.

In the case of `O=C(NN1C(=O)c2ccccc2C1=O)c1ccccc1Br`, the displacement amounted to 10.4%.

As to `CCC(NC(=O)c1ccccc1NC(=O)c1ccco1)C(=O)O` (configuration not stated), the displacement was 0%.

Take `O=C(Nc1cccc(C(=O)c2ccccc2)c1)c1ccc(Cl)cc1`: the displacement stood at 16.1%.

`COc1ccc(N2C(=O)/C(=C/c3cc([N+](=O)[O-])cc(OC)c3O)SC2=S)cc1`: the displacement was determined as 1.4%.

On to `CCOc1ccccc1NC(=O)CN(c1cc(Cl)cc(Cl)c1)S(C)(=O)=O`, for which the displacement is -1.3%.

For the compound `CC1=C(C(=O)OCc2ccccc2)C(c2ccc(C)s2)NC(=O)N1` (configuration not stated), the displacement was -13.2%.

Consider `O=C1OCC2=C1C(c1ccc3c(c1)OCO3)Sc1ccccc1N2` (configuration not stated), for which the displacement is -5.1%.

Take `COc1ccccc1/C=C(\C#N)C(N)=O`: the displacement is -10%.

On to `COc1cccc(-n2c(O)c(/C=C3\C(C)=Nc4ccccc43)c(=O)[nH]c2=O)c1`, for which the displacement was found to be 16.5%.

As for `CC(C)CN1C(=O)/C(=C/c2ccc([N+](=O)[O-])cc2)SC1=S`, the displacement came out at 11.2%.

As to `O=[N+]([O-])c1ccccc1C1N(c2ccccc2)CCN1c1ccccc1`, the displacement was found to be 1.4%.

On to `CCSc1nnc2n(-c3ccc(C)cc3)c(=O)c3c4c(sc3n12)CCCC4`, for which the displacement worked out at 3.6%.

On to `CCOc1ccccc1C1C(C(=O)OCc2ccc(OC)cc2)=C(C)NC2=C1C(=O)CC(C)(C)C2` (configuration not stated), for which the displacement is -3.4%.

With `O=C(c1cccc(Cl)c1)N1CCN(Cc2ccccn2)CC1`, the displacement is -14.7%.

With `CCOC(=O)c1c(N)sc(C)c1-c1ccc(Cl)cc1`, the displacement stood at 5.1%.

Regarding `O=C(NC(N1CCCCC1)C(Cl)(Cl)Cl)c1ccc(Cl)cc1Cl` (configuration not stated), the displacement worked out at 15.7%.

On to `Cn1c(/C=C/c2ccco2)nc2ccccc21`, for which the displacement stood at 35.7%.

Consider `Cn1c(N)c(/C=N/Nc2ccccc2)c(=O)n(C)c1=O`, for which the displacement is 0.4%.

Turning to `COC(=O)CN1C(=O)C(=Cc2cccc(OCc3ccccc3)c2)SC1=S`, the displacement worked out at 1.9%.

As for `C#CCOc1ccc(/C=C2\C(=O)NC(=O)N(c3ccc(C)cc3)C2=O)cc1OC`, the displacement is -1.5%.

For the compound `CCOc1ccc(S(=O)(=O)Nc2c(C)n(C)n(-c3ccccc3)c2=O)cc1`, the displacement came out at 12.9%.

For `CN1C(=O)/C(=C\c2ccsc2)SC1=S`, the displacement was 13.2%.

For the compound `CCOC(=O)C1=C(C)NC(C)=C(C(=O)OCC)C1c1ccc(C)cc1`, the displacement stood at 3.2%.

For the compound `O=C(CN(c1cccc(Br)c1)S(=O)(=O)c1ccccc1)Nc1ccccc1Cl`, the displacement came out at 4.5%.

Regarding `COc1ccc(Cc2cnc(NC(=O)c3ccc(C)cc3)s2)cc1`, the displacement is -1.7%.

For `Cc1ccc([N+](=O)[O-])cc1NC(=O)C12CC3CC(CC(C3)C1)C2`, the displacement is 1.4%.

As for `N/C(=N\OC(=O)c1cccs1)c1cccc([N+](=O)[O-])c1`, the displacement is -0.9%.
